Laboratory results reported in the supplement of paper PMC4604168 (melanoma cell lines).
The list shows a part of the results. Single values are uncertain, as repeats are few or missing.

What was measured:
Experiment in all cases: cell count relative to DMSO control; melanoma cells; higher = more viable cells
Conditions in all cases: library dose: standard library concentration; 72 h
A101D = test system: A101D
A2058 = test system: A2058
A375 = test system: A375
501Mel = test system: 501Mel
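Note: cells treated in 1,536-well plates, then fixed and DAPI-stained, with nuclei counted from automated high-throughput microscope images.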

Structure (SMILES)	cell count (A101D) [%]	cell count (A2058) [%]	cell count (A375) [%]	cell count (501Mel) [%]
Nc1ccn([C@@H]2O[C@H](CO)[C@@H](O)C2(F)F)c(=O)n1 [gemcitabine] + Cc1cc(SCc2sc(-c3ccc(C(F)(F)F)c(F)c3)nc2C)ccc1OCC(=O)O [GW0742] (first compound 0.002 µM, partner dose 10 µM)	93.7	58.2	114	–
C=CCn1c(=O)c2cnc(Nc3ccc(N4CCN(C)CC4)cc3)nc2n1-c1cccc(C(C)(C)O)n1 + C/C(O)=C(\C#N)C(=O)Nc1cc(Br)ccc1Br [LFM-A13] (first compound 0.1 µM, partner dose 10 µM)	58.4	85	51.5	–
CC(C)C[C@H](NC(=O)[C@H](Cc1ccccc1)NC(=O)c1cnccn1)B(O)O [Bortezomib] + N.N.[Cl][Pt][Cl] [cisplatin] (first compound 0.005 µM, partner dose 8 µM)	8.53	12.7	78	–
CO[C@H]1C[C@@H]2CC[C@@H](C)[C@@](O)(O2)C(=O)C(=O)N2CCCC[C@H]2C(=O)O[C@H]([C@H](C)C[C@@H]2CC[C@@H](OCCO)[C@H](OC)C2)CC(=O)[C@H](C)/C=C(\C)[C@@H](O)[C@@H](OC)C(=O)[C@H](C)C[C@H](C)/C=C/C=C/C=C/1C [everolimus] + O=C(Oc1ccc([N+](=O)[O-])cc1)N1CCC(C(O)(c2ccc3c(c2)OCO3)c2ccc3c(c2)OCO3)CC1 [JZL184] (first compound 0.1 µM, partner dose 5 µM)	79.5	67.1	91	–
COc1ccc(COc2ccc(Cc3cnc(N)nc3N)cc2OC)cc1 + Cc1cc(SCc2sc(-c3ccc(C(F)(F)F)c(F)c3)nc2C)ccc1OCC(=O)O [GW0742] (first compound 5 µM, partner dose 10 µM)	103	93.7	77.5	68.8
COc1ccc(COc2ccc(Cc3cnc(N)nc3N)cc2OC)cc1 + O=C(Oc1ccc([N+](=O)[O-])cc1)N1CCC(C(O)(c2ccc3c(c2)OCO3)c2ccc3c(c2)OCO3)CC1 [JZL184] (first compound 5 µM, partner dose 5 µM)	91	107	83.5	–
Cn1c(Nc2ccc(C(F)(F)F)cc2)nc2cc(Oc3ccnc(-c4ncc(C(F)(F)F)[nH]4)c3)ccc21 + Cc1cc(SCc2sc(-c3ccc(C(F)(F)F)c(F)c3)nc2C)ccc1OCC(=O)O [GW0742] (first compound 0.4 µM, partner dose 10 µM)	63.9	88.4	95.8	33.9
CN1CCN(c2ccc3nc(-c4c(N)c5c(F)cccc5[nH]c4=O)[nH]c3c2)CC1 [Dovitinib] + O=C(Oc1ccc([N+](=O)[O-])cc1)N1CCC(C(O)(c2ccc3c(c2)OCO3)c2ccc3c(c2)OCO3)CC1 [JZL184] (first compound 0.5 µM, partner dose 5 µM)	69.1	23.1	69.7	65.5
CO[C@H]1C[C@@H]2CC[C@@H](C)[C@@](O)(O2)C(=O)C(=O)N2CCCC[C@H]2C(=O)O[C@H]([C@H](C)C[C@@H]2CC[C@@H](OCCO)[C@H](OC)C2)CC(=O)[C@H](C)/C=C(\C)[C@@H](O)[C@@H](OC)C(=O)[C@H](C)C[C@H](C)/C=C/C=C/C=C/1C [everolimus] + C[As](C)SC[C@H](NC(=O)CC[C@H](N)C(=O)O)C(=O)NCC(=O)O [Darinaparsin] (first compound 0.1 µM, partner dose 2 µM)	62.4	47	82.9	–
Cc1cc(Nc2cc(N3CCN(C)CC3)nc(Sc3ccc(NC(=O)C4CC4)cc3)n2)n[nH]1 [Tozasertib] + Cc1cc(SCc2sc(-c3ccc(C(F)(F)F)c(F)c3)nc2C)ccc1OCC(=O)O [GW0742] (first compound 0.03 µM, partner dose 10 µM)	86.8	87.2	117	–
CN1CCN(c2ccc3nc(-c4c(N)c5c(F)cccc5[nH]c4=O)[nH]c3c2)CC1 [Dovitinib] + C[As](C)SC[C@H](NC(=O)CC[C@H](N)C(=O)O)C(=O)NCC(=O)O [Darinaparsin] (first compound 0.5 µM, partner dose 2 µM)	58.8	52.1	65.1	–
Cc1cc(Nc2cc(N3CCN(C)CC3)nc(Sc3ccc(NC(=O)C4CC4)cc3)n2)n[nH]1 [Tozasertib] + C[C@]12O[C@H](C[C@]1(O)CO)n1c3ccccc3c3c4c(c5c6ccccc6n2c5c31)CNC4=O [Lestaurtinib] (first compound 0.03 µM, partner dose 0.02 µM)	61.7	86.8	111	–
Cc1cc([N+](=O)[O-])ccc1NS(=O)(=O)c1cc(Cl)ccc1Cl + O=C(Oc1ccc([N+](=O)[O-])cc1)N1CCC(C(O)(c2ccc3c(c2)OCO3)c2ccc3c(c2)OCO3)CC1 [JZL184] (first compound 5 µM, partner dose 5 µM)	82.3	84.4	73.6	74
CN1CCN(c2ccc3nc(-c4c(N)c5c(F)cccc5[nH]c4=O)[nH]c3c2)CC1 [Dovitinib] + Cc1cc(SCc2sc(-c3ccc(C(F)(F)F)c(F)c3)nc2C)ccc1OCC(=O)O [GW0742] (first compound 0.5 µM, partner dose 10 µM)	75.1	62.4	105	–
O=C(O)c1ccc2c(c1)nc(Nc1cccc(Cl)c1)c1ccncc12 + C[As](C)SC[C@H](NC(=O)CC[C@H](N)C(=O)O)C(=O)NCC(=O)O [Darinaparsin] (first compound 2 µM, partner dose 2 µM)	63.5	80.4	52.2	–
COc1cc2ncnc(Nc3ccc(Oc4ccccc4)cc3)c2cc1OC + O=C(Oc1ccc([N+](=O)[O-])cc1)N1CCC(C(O)(c2ccc3c(c2)OCO3)c2ccc3c(c2)OCO3)CC1 [JZL184] (first compound 10 µM, partner dose 5 µM)	81	94	96.9	64.9
Cc1cc(Nc2cc(N3CCN(C)CC3)nc(Sc3ccc(NC(=O)C4CC4)cc3)n2)n[nH]1 [Tozasertib] + N.N.[Cl][Pt][Cl] [cisplatin] (first compound 0.03 µM, partner dose 8 µM)	86	101	90.6	–
O=C(O)c1ccc2c(c1)nc(Nc1cccc(Cl)c1)c1ccncc12 + C/C(O)=C(\C#N)C(=O)Nc1cc(Br)ccc1Br [LFM-A13] (first compound 2 µM, partner dose 10 µM)	74.5	73.4	70.1	–
Cc1cc(Nc2cc(N3CCN(C)CC3)nc(Sc3ccc(NC(=O)C4CC4)cc3)n2)n[nH]1 [Tozasertib] + C[As](C)SC[C@H](NC(=O)CC[C@H](N)C(=O)O)C(=O)NCC(=O)O [Darinaparsin] (first compound 0.03 µM, partner dose 2 µM)	96.5	79	79.5	–
Cc1nc(Nc2ncc(C(=O)Nc3c(C)cccc3Cl)s2)cc(N2CCN(CCO)CC2)n1 [dasatanib] + O=C(Oc1ccc([N+](=O)[O-])cc1)N1CCC(C(O)(c2ccc3c(c2)OCO3)c2ccc3c(c2)OCO3)CC1 [JZL184] (first compound 0.02 µM, partner dose 5 µM)	59.1	62.3	53.6	–
COCC[n+]1c2c(n(Cc3cnccn3)c1C)C(=O)c1ccccc1C2=O + O=C(Oc1ccc([N+](=O)[O-])cc1)N1CCC(C(O)(c2ccc3c(c2)OCO3)c2ccc3c(c2)OCO3)CC1 [JZL184] (first compound 0.002 µM, partner dose 5 µM)	53.3	16.9	48.6	–
Nc1ccn([C@@H]2O[C@H](CO)[C@@H](O)C2(F)F)c(=O)n1 [gemcitabine] + C[As](C)SC[C@H](NC(=O)CC[C@H](N)C(=O)O)C(=O)NCC(=O)O [Darinaparsin] (first compound 0.002 µM, partner dose 2 µM)	88.2	47.4	72.3	–
C[C@@H]1CCN(C(=O)CC#N)C[C@@H]1N(C)c1ncnc2[nH]ccc12 + O=C(Oc1ccc([N+](=O)[O-])cc1)N1CCC(C(O)(c2ccc3c(c2)OCO3)c2ccc3c(c2)OCO3)CC1 [JZL184] (first compound 5 µM, partner dose 5 µM)	89.8	86.7	103	–
